Measured values published in the supplement of paper PMC4967469.

Columns and labels:
Test in all cases: Viability of human cancer cell lines after 72 h of drug (GDSC screen)
Docetaxel = compound: CC(=O)O[C@@]12CO[C@@H]1C[C@H](O)[C@@]1(C)C(=O)[C@H](O)C3=C(C)[C@@H](OC(=O)[C@H](O)[C@@H](NC(=O)OC(C)(C)C)c4ccccc4)C[C@@](O)([C@@H](OC(=O)c4ccccc4)[C@H]21)C3(C)C [Docetaxel]; settings: top dose 0.0125 µM
Experimental: (§1)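 Human cancer cell lines in 384-well plates, medium with 10% serum, drug for 72 h over a 256-fold dose range (nine 2-fold or five 4-fold steps up to the top dose). Adherent lines were fixed and stained with the nucleic acid dye Syto60, suspension lines read with resazurin; signal relative to control wells, capped at 0 and 100%. One two-parameter sigmoid per drug and line, fitted in a mixed model over all curves with the slope shared within a line.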

AMG-706 = compound: CC1(C)CNc2cc(NC(=O)c3cccnc3NCc3ccncc3)ccc21 [AMG-706]; settings: top dose 2 µM; top dose inferred
Experimental: as §1

Cyclopamine = compound: CC1=C2C[C@H]3[C@@H](CC=C4C[C@@H](O)CC[C@@]43C)[C@@H]2CC[C@]12O[C@@H]1C[C@H](C)CN[C@H]1[C@H]2C [Cyclopamine]; settings: top dose 16 µM; top dose inferred
Experimental: as §1

JNK Inhibitor VIII = compound: CCOc1nc(NC(=O)Cc2cc(OC)ccc2OC)cc(N)c1C#N [JNK Inhibitor VIII]; settings: top dose 10 µM; top dose inferred
Experimental: as §1

NSC-207895 = compound: CN1CCN(c2ccc([N+](=O)[O-])c3no[n+]([O-])c23)CC1 [NSC-207895]; settings: top dose 20 µM; top dose inferred
Experimental: as §1

FTI-277 = compound: COC(=O)[C@H](CCSC)NC(=O)c1ccc(NC[C@@H](N)CS)cc1-c1ccccc1 [FTI-277]; settings: top dose 1.024 µM; top dose inferred
Experimental: as §1

YM155 = compound: COCC[n+]1c2c(n(Cc3cnccn3)c1C)C(=O)c1ccccc1C2=O [YM155]; settings: top dose 5.12 µM
Experimental: as §1

NVP-TAE684 = compound: COc1cc(N2CCC(N3CCN(C)CC3)CC2)ccc1Nc1ncc(Cl)c(Nc2ccccc2S(=O)(=O)C(C)C)n1 [NVP-TAE684]; settings: top dose 2 µM
Experimental: as §1

OSI-906 = compound: C[C@]1(O)C[C@@H](c2nc(-c3ccc4ccc(-c5ccccc5)nc4c3)c3c(N)nccn32)C1 [OSI-906]; settings: top dose 2.56 µM; top dose inferred
Experimental: as §1

SB-715992 = compound: Cc1ccc(C(=O)N(CCCN)[C@@H](c2nc3cc(Cl)ccc3c(=O)n2Cc2ccccc2)C(C)C)cc1 [SB-715992]; settings: top dose 0.128 µM; top dose inferred
Experimental: as §1

JQ1 = compound: Cc1sc2c(c1C)C(c1ccc(Cl)cc1)=N[C@@H](CC(=O)OC(C)(C)C)c1nnc(C)n1-2 [JQ1]
Experimental: as §1

Belinostat = compound: O=C(/C=C/c1cccc(S(=O)(=O)Nc2ccccc2)c1)NO [Belinostat]; settings: top dose 20 µM; top dose inferred
Experimental: as §1

CGP-60474 = compound: OCCCNc1cc(-c2ccnc(Nc3cccc(Cl)c3)n2)ccn1 [CGP-60474]; settings: top dose 0.256 µM; top dose inferred
Experimental: as §1

JNJ-26854165 = compound: c1ccc2c(CCNc3ccc(Nc4ccncc4)cc3)c[nH]c2c1 [JNJ-26854165]; settings: top dose 10 µM
Experimental: as §1

[1] = top dose 1 µM, screen: GDSC drug entry 1218, top dose inferred
[2] = top dose 2.56 µM, screen: GDSC drug entry 163

| Cell Line | AUC (Docetaxel) | IC50 (Docetaxel) [nM] | AUC (AMG-706) | IC50 (AMG-706) [nM] | AUC (Cyclopamine) | IC50 (Cyclopamine) [nM] | AUC (JNK Inhibitor VIII) | IC50 (JNK Inhibitor VIII) [nM] | AUC (NSC-207895) | IC50 (NSC-207895) [nM] | AUC (FTI-277) | IC50 (FTI-277) [nM] | AUC (YM155) | IC50 (YM155) [nM] | AUC (NVP-TAE684) | IC50 (NVP-TAE684) [nM] | AUC (OSI-906) | IC50 (OSI-906) [nM] | AUC (SB-715992) | IC50 (SB-715992) [nM] | AUC (JQ1; [1]) | IC50 (JQ1; [1]) [nM] | AUC (JQ1; [2]) | IC50 (JQ1; [2]) [nM] | AUC (Belinostat) | IC50 (Belinostat) [nM] | AUC (CGP-60474) | IC50 (CGP-60474) [nM] | AUC (JNJ-26854165) | IC50 (JNJ-26854165) [nM] |
| --- | --- | --- | --- | --- | --- | --- | --- | --- | --- | --- | --- | --- | --- | --- | --- | --- | --- | --- | --- | --- | --- | --- | --- | --- | --- | --- | --- | --- | --- | --- |
| JM1 (B-cell lymphoma, suspension) | 0.957 | > 12.5 | 0.989 | > 2000 | 0.978 | > 16000 | 0.975 | > 10000 | 0.465 | 1020 | 0.991 | > 1020 | 0.017 | < 20 | 0.822 | 955 | 0.97 | > 2560 | 0.787 | 47.2 | 0.983 | > 1000 | 0.671 | 443 | 0.078 | < 78.1 | 0.705 | 54.8 | 0.932 | > 10000 |
| KARPAS-45 (lymphoblastic leukaemia, suspension) | 0.944 | > 12.5 | 0.991 | > 2000 | 0.974 | > 16000 | 0.989 | > 10000 | 0.851 | 11500 | 0.991 | > 1020 | 0.017 | < 20 | 0.822 | 919 | 0.954 | > 2560 | 0.549 | 10.7 | 0.991 | > 1000 | 0.561 | 227 | 0.086 | < 78.1 | 0.814 | 111 | 0.934 | > 10000 |
| L-540 (Hodgkin lymphoma, suspension) | 0.918 | > 12.5 | 0.99 | > 2000 | 0.983 | > 16000 | 0.99 | > 10000 | 0.98 | > 20000 | 0.94 | > 1020 | 0.983 | > 5120 | 0.899 | > 2000 | 0.986 | > 2560 | 0.888 | 117 | 0.989 | > 1000 | 0.953 | > 2560 | 0.988 | > 20000 | 0.765 | 84 | 0.922 | > 10000 |
| L-1236 (Hodgkin lymphoma, suspension) | 0.724 | 2.99 | 0.992 | > 2000 | 0.982 | > 16000 | 0.992 | > 10000 | 0.972 | > 20000 | 0.991 | > 1020 | 0.08 | < 20 | 0.94 | > 2000 | 0.992 | > 2560 | 0.988 | > 128 | 0.869 | 689 | 0.865 | 1700 | 0.262 | 300 | 0.789 | 94.6 | 0.978 | > 10000 |

By IC50 is meant the dose at which the fit gives 50% viability; a fit beyond the top or the lowest dose is shown as a bound at that dose. AUC is the area under the same curve over the 256-fold range up to the top dose, as a fraction: 1 means no effect, lower means more sensitive. For part of these data: A top dose marked as inferred was derived from the fitted curves, not read from the paper. For part of these data: An entry number marks a drug with two screens in the source, which often give different values.
